Article PMC12040169 (PLOS Biology, 2025)
Some of the results follow.

The compounds below were run on T1, C. trachomatis L2/434/Bu expressing GFP (CTL2-GFP). Conditions: total inclusion area; 28.5 h, 10 µM; inhibitor.
T1 construct: L2/434/Bu GFP intracellular growth in HeLa cells
Parameters: species or system HeLa; C. trachomatis total inclusion area by high-content imaging, normalised to DMSO
Summary of the method: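 Imaging read-out: GFP inclusions and Hoechst nuclei captured by high-content imaging after fixation. Inclusion area/number = chlamydial growth; nuclei count = host cell viability. MIC calculated per earlier method.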

Structure (SMILES) | % of control remaining
CCCCCC1/C(=N\O)CCC1CC(=O)OC (centres unmarked) [CBK019978] | 39.9377
Cc1c(NC(=S)NC(=O)COc2ccc(Cl)cc2)cccc1C(=O)O [CBK265070] | 120.413
COc1ccccc1-c1cnc(N)c(NC2CCOCC2)n1 [CBK063853] | 115.032
O=C(NCCCN1CCOCC1)c1c(Cl)cccc1Cl [CBK263631] | 109.036
O=C(CC(C(=O)O)C1CCCO1)Nc1ccc(Cl)cc1Cl (centres unmarked) [CBK261509] | 108.493
CNC(=O)c1cn2cc(-c3cccs3)n(CC3CC3)c(=O)c2n1 [CBK306838] | 98.9465
CN1CCC[C@H]1C(=O)N1CCC(Cn2cncn2)(C2CCCCC2)CC1 [CBK136818] | 119.943
COc1cc(OC)c(CN2CC3(C)CC2CC(C)(C)C3)cc1Br (centres unmarked) [CBK307074] | 35.2047
CC1Oc2ccc(NC(=O)C3CC4C=CC3C43CC3)cc2NC1=O (centres unmarked) [CBK281523] | 84.9967
Cc1ccc(S(=O)(=O)N2CCOCC2)cc1-c1cncc(-c2ccc(O)cc2)n1 [CBK123789] | 68.6916
COc1ccc(/C(C)=N/NC(=N)SC2CC(=O)N(c3ccc(C(=O)O)cc3)C2=O)cc1F (centres unmarked) [CBK262805] | 95.8808
FC(F)(F)c1ccnc(SCCOc2ccccc2)n1 [CBK103721] | 56.7509
Cc1ccc(C)c(C(=O)CCC(=O)Nc2cccnc2)c1 [CBK266902] | 99.2436
CCn1cnc2cc(NC(=O)c3ccc(C)n(C)c3=O)ccc21 [CBK281402] | 88.5277
Cc1cc2cc3n(c2nn1)N=C(Cl)CC3 [CBK019458] | 46.5215
CC(=O)N1CCc2c(sc(NC(=O)c3ccccc3C)c2C#N)C1 [CBK304681] | 20.5788
Brc1cnn(-c2ccccc2)c1 [CBK027172] | 39.3105
O=C(CCCc1ccccc1)Nc1c(F)cc(F)cc1OC1CCNCC1 [CBK050222T] | 88.1002
c1cncc(CN2CCC(Oc3cncc(OCC4COc5ccccc5O4)n3)C2)c1 (centres unmarked) [CBK084365] | 90.924
CC(C)n1cnnc1CN1CCN(c2ccc(C#N)cc2)CC1 [CBK307714] | 89.4074
CCOc1ccccc1NC(C)CC(=O)O (centres unmarked) [CBK058826] | 107.121
COC(=O)c1cn([C@H]2CO[C@H]3[C@@H]2OC[C@H]3O)nn1 [CBK289491] | 100.371
O=C(Cc1c[nH]c2ccccc12)N1CCC2(CCCN(C(=O)c3cccnc3)C2)C1 (centres unmarked) [CBK131604] | 96.0278
Nc1ncnc2c1nc1n2[C@H]2C[C@@H](O)[C@H](O2)C1=O [CBK201259] | 134.922
CCCc1ccc(S(=O)(=O)Nc2nc(C)c(C(=O)O)s2)cc1 [CBK045555] | 92.6134
CN(CP(=O)(O)CCc1ccccc1)S(C)(=O)=O [CBK263068] | 90.3117
CS(=O)(=O)N(CC(=O)Nc1ccc(S(=O)(=O)N2CCCC2)cc1)c1ccc2c(c1)OCO2 [CBK268995] | 105.987

Structure (SMILES) | % of control remaining
O=C(CNS(=O)(=O)c1ccc(Oc2ccccc2)cc1)Nc1ccc(F)cc1 [CBK042229] | 59.9315
O=C(c1cnc2cc(C(F)(F)F)ccc2c1O)N1CCN(c2ccccn2)CC1 [CBK107431] | 69.1006
COc1ccc(C(=O)N2CCC3(CCN(Cc4ccc(Cl)c(Cl)c4)C3)C2)cc1OC (centres unmarked) [CBK132150] | 86.356
O=C(C1CCN(S(=O)(=O)c2ccc3ccccc3c2)CC1)N1CCC(Cc2ccccc2)CC1 [CBK269558] | 77.2025
O=C(CN1C(=O)c2ccccc2S1(=O)=O)N(Cc1ccccc1)Cc1ccccc1 [CBK265982] | 62.9026
O=C(Nc1cccc(-c2nc3ccccc3s2)c1)c1ccc(Cn2cnnn2)cc1 [CBK285823] | 119.829
COc1ccnc(N2CCN(C(=O)c3cc(C)nn3C)CC2)n1 [CBK305967] | 43.7895
CN(C1CCCCC1)S(=O)(=O)NCCc1cn2ccccc2n1 [CBK305576] | 96.0579
O=S(=O)(Nc1nc(-c2ccccc2Cl)cs1)c1sc(Cl)cc1Br [CBK200028] | 86.0347
CC(C)Cn1c(=O)[nH]c2ncc(-c3ccc(O)cc3)nc21 [CBK065011] | 73.1982
O=C(O)C1CCCN(C(=O)Cc2csc(COc3ccc(Cl)cc3)n2)C1 (centres unmarked) [CBK304501] | 66.9356
CNCC(=O)N1CCN(C(=O)c2ccc(Cl)cc2Cl)CC1 [CBK029576] | 3.225
O=C(CCc1c[nH]c2ccccc12)Nc1ccccc1C(=O)O [CBK287242] | 111.021
Cc1cc(NC(=O)C2CCN(C(=O)c3c(F)cccc3F)CC2)no1 [CBK304359] | 67.529
COc1ccc(CCNc2ncnc3[nH]cnc23)cc1OC [CBK134342] | 103.676
CCOC(=O)c1cccc(-n2ncc(CN(C)C)n2)c1 [CBK112866] | 84.632
O=C(O)[C@H]1Nc2ccc(Br)cc2[C@H]2[C@H](O)[C@H](O)C[C@H]21 [CBK303242] | 77.9851
CC(C)OC(=O)[C@@H]1CCN(C(=O)CCC2NC(=O)NC2=O)[C@@H]1c1ccc(F)cc1 (some centres unmarked) [CBK285520] | 77.5369
O=C(O)Cc1ccc(OCC(=O)NCc2ccc(Cl)cc2Cl)cc1 [CBK296628] | 97.2639
Cn1nccc1NS(=O)(=O)c1ccc(-c2cnco2)s1 [CBK062088] | 59.3155
COc1ccc2cc([C@@H](O)C[C@@H](C)O)c(Cl)nc2c1 [CBK022146] | 95.0045
Cc1csc(C(Cc2ccsc2)NCc2cccnc2)n1 (centres unmarked) [CBK285020] | 104.562
CN1C(=O)c2ccccc2OCCCCC[C@H]2[C@@H]1CCCN2C(=O)c1ccccc1Cn1cncn1 [CBK292114] | 86.8073
CCC1(CC)CCN(C(=O)CCn2ccc3ccncc32)C1 [CBK285176] | 86.9103
COCc1cccc(-c2ncc(OCCN3CCCC3=O)nc2NC(C)=O)c1 [CBK145239] | 102.301
Cn1ccnc1C1(O)CC2CCC(C1)N2C(=O)c1c(F)cccc1F (centres unmarked) [CBK284092] | 86.2164
O=C(Nc1cccc(Cl)c1)c1cccc(NC(=O)c2ccccc2C(=O)O)c1 [CBK287122] | 109.7

Structure (SMILES) | % of control remaining
Cc1oc2ncn(Cc3ccccc3)c(=N)c2c1C [CBK288160] | 105.732
O=C(Nc1ccc(F)cc1)c1ccc(NS(=O)(=O)c2ccc(Br)cc2)cc1 [CBK050400] | 52.9203
COC(=O)C1C=C(NS(=O)(=O)c2ccc(-c3ccnc(SC)n3)s2)C=CC1 (centres unmarked) [CBK160388] | 90.3001
N=c1n(CCN2CCCCC2)c2ccccc2n1CC(O)COc1ccc(Cl)cc1 (centres unmarked) [CBK262512C] | 89.2613
CC(O)CNC(=O)C1(c2ccccc2)CCCC1 (centres unmarked) [CBK149542] | 126.068
O=C(Nc1cccc(O)c1)c1ccc(Br)c(S(=O)(=O)N2CCCCC2)c1 [CBK261736] | 92.5797
O=C(NC(=S)Nc1ccc2c(c1)Cc1ccccc1-2)c1cc([N+](=O)[O-])ccc1N1CCOCC1 [CBK268726] | 108.098
COc1ccc([C@@]23CC[C@@H](N)C[C@@H]2N(C(C)(C)C)CC3)cc1OC [CBK067673] | 92.4129
COc1ccc2c(c1OC)C(=O)N(c1cccc([N+](=O)[O-])c1)C2 [CBK115318] | 86.4591
CCOc1cc(OCC)cc(C(=O)N2CCC3(CC2)CC(=O)c2c(OC)cccc2O3)c1 [CBK168012] | 118.573
COCCNC(=O)CN(C)c1nc2ccccc2[nH]1 [CBK306378] | 84.567
CC(=O)Nc1ccc(-c2cncc(N(C)CCN(C)C)n2)cc1 [CBK065694] | 162.199
O=C(Cn1nc(C(F)(F)F)c2c1CCC2)N1CCN(Cc2ccccc2)CC1 [CBK266113] | 78.8652
CC(=O)NCC1CCCN(Cc2c[nH]nc2-c2c(F)cccc2F)C1 (centres unmarked) [CBK306382] | 28.8276
O=CNC(Cc1ccc(O)c([N+](=O)[O-])c1)C(=O)O (centres unmarked) [CBK262421] | 105.742
Cc1cccc(-c2n[nH]c(=S)n2CC(=O)NCc2cn(-c3ccccc3)nc2-c2ccccc2)c1 [CBK297941] | 86.7036
Cc1occc1-c1nnc(NCc2cnn(C)c2C)o1 [CBK304819] | 82.494
Nc1ncc(-c2ccc3c(c2)OCO3)nc1NCc1ccncc1 [CBK063483] | 111.527
CS(=O)(=O)c1ccc(-c2cnc(N)c(NCc3ccncc3)n2)cc1 [CBK063647] | 82.8138
O=C(CSc1nc2ccccc2c(=O)[nH]1)Nc1ccccc1O [CBK269738] | 119.258
O=c1nc(O)c2ccccc2s1 [CBK027968] | 98.5479
C[C@H](c1ccccc1)n1c(=O)[nH]c2ncc(-c3cccc4ncccc34)nc21 [CBK064173] | 94.5138
O=C(NCC1COc2ccccc2O1)c1ccc(-c2ccccc2)nc1NCCc1ccccn1 (centres unmarked) [CBK076554] | 88.363
O=C(NCCNc1cnccn1)c1cc(Br)ccc1F [CBK253480] | 54.4623
Cc1ncc(CN(CCN(C)C)Cc2cccs2)n1C [CBK282993] | 97.4818
CC(C)c1ccc(-n2ncc3c(=O)[nH]cnc32)cc1 [CBK288096] | 55.0696
